Source: the supplement of paper PMC12217912
Some of the results follow. The full chains were built here from the parent and the listed change. Inactive controls read about 0.05.

B1: TEV protease; numbered along this chain (parent)
chain: MGESLFKGPRDYNPISSSICHLTNESDGHTTSLYGIGFGPFIITNKHLFRRNNGTLVVQSLHGVFKVKDTTTLQQHLVDGRDMIIIRMPKDFPPFPQKLKFREPQREERICLVTTNFQTKSMSSMVSDTSCTFPSGDGIFWKHWIQTKDGQCGSPLVSTRDGFIVGIHSASNFTNTNNYFTSVPKNFMELLTNQEAQQWVSGWRLNADSVLWGGHKVFMVKPEEPFQPVKEATQL

Variants of: B1
Assay: raw area under fraction-flipped curve 0-4 h after induction (AUC4h, not background-subtracted), DNA-recorder readout of cleavage of the substrate (dimensionless); higher = more cleavage of the substrate by the protease variant
Conditions: temperature: 34 °C; time window: 0-4 h after rhamnose induction
Procedure: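 In vivo DNA recorder in E. coli TOP10(DE3) ΔrhaA at 34 °C. Each TEVp single-site mutant (parent TEVp 0) is paired with a single-site variant of the 7-mer TEVs (canonical ENLYFQ|S). The substrate sits between flexible linkers in a Bxb1-sfGFP-TEVs-SsrA fusion, so cleavage stabilises Bxb1 and speeds flipping of a recombination array, read by NGS. The value is the raw area under the fraction-flipped curve over 0-4 h after rhamnose induction (AUC4h), with ≥20 reads per time point. It is not background-subtracted; inactive controls average about 0.047.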
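Note: Bxb1 expression induced with 0.2% (w/v) L-rhamnose at OD600 near 0.5, cultures sampled hourly, flipped fraction per protease–substrate barcode pair counted by paired-end Illumina sequencing.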

Row | Variant | area with substrate ENLAFQS | area with substrate ENLCFQS | area with substrate ENLDFQS | area with substrate ENLEFQS | area with substrate ENLFFQS | area with substrate ENLHFQS | area with substrate ENLIFQS | area with substrate ENLKFQS | area with substrate ENLNFQS | area with substrate ENLPFQS | area with substrate ENLQFQS | area with substrate ENLRFQS | area with substrate ENLVFQS | area with substrate ENLMFQS | area with substrate ENLTFQS | area with substrate ENLWFQS | area with substrate ENLSFQS | area with substrate ENLGFQS | area with substrate ENLLFQS
1 | L112E | 0.0439 | 0.0657 | 0.0419 | 0.0694 | 0.0717 | 0.0601 | 0.048 | 0.0683 | 0.07 | 0.0516 | 0.0593 | 0.0612 | 0.063 |  |  |  |  |  | 
2 | T115E | 0.0696 |  | 0.069 | 0.0611 | 0.107 | 0.0599 | 0.104 | 0.0517 | 0.0509 | 0.0521 |  | 0.117 |  | 0.0652 | 0.0818 | 0.063 |  |  | 
3 | D91W | 0.0578 |  | 0.066 |  |  |  | 0.0767 | 0.0907 | 0.0682 | 0.0517 | 0.0554 | 0.0739 |  |  |  |  | 0.0694 |  | 
4 | R106T | 0.0462 |  | 0.073 | 0.0543 | 0.0805 |  | 0.0736 | 0.0783 | 0.0657 | 0.0938 | 0.0669 | 0.0895 |  | 0.0841 |  | 0.068 | 0.0585 | 0.0699 | 0.0906
5 | S121G | 0.0506 | 0.0715 | 0.0491 | 0.0472 | 0.0915 | 0.0956 | 0.0719 | 0.0811 | 0.0571 |  |  |  |  |  | 0.0415 | 0.054 |  |  | 0.0687
6 | S121P | 0.0985 | 0.0756 | 0.0696 | 0.068 | 0.0828 |  |  | 0.0903 | 0.0692 | 0.0581 | 0.0619 |  | 0.0688 | 0.0719 |  |  | 0.071 | 0.0647 | 
7 | H143D | 0.035 | 0.0799 | 0.0702 | 0.0372 |  | 0.0523 |  |  | 0.0586 | 0.0731 | 0.0551 | 0.0733 |  |  |  |  | 0.0603 | 0.066 | 
8 | P93A | 0.0785 |  | 0.0857 |  | 0.0778 |  |  | 0.06 | 0.0693 |  | 0.073 |  |  |  | 0.0742 | 0.0676 | 0.0615 | 0.0745 | 0.0746
9 | L99P | 0.078 | 0.0727 | 0.0603 |  | 0.0814 | 0.0768 |  | 0.0675 | 0.0599 | 0.0491 | 0.0657 |  |  |  | 0.0725 | 0.0631 | 0.0653 |  | 0.116
10 | F133V | 0.0725 |  | 0.0519 |  | 0.0822 | 0.0623 |  | 0.0813 | 0.0675 | 0.0595 | 0.0609 |  |  | 0.0788 |  | 0.0605 | 0.0688 | 0.0717 | 
11 | F133C | 0.0547 |  | 0.0626 | 0.0652 |  | 0.0719 |  | 0.0724 | 0.0524 |  | 0.0853 |  |  |  | 0.0643 |  | 0.0636 |  | 0.0905
12 | Q74C | 0.0392 | 0.0655 | 0.0677 |  | 0.0737 |  |  | 0.0689 | 0.0639 |  | 0.0718 | 0.0408 |  |  |  | 0.0694 | 0.0506 |  | 0.0505
13 | Q74R | 0.0064 |  |  |  | 0.0687 | 0.071 |  | 0.0715 | 0.0556 | 0.0553 | 0.0728 |  |  | 0.0859 |  |  |  | 0.0581 | 0.0803
14 | L77E | 0.067 | 0.0644 | 0.0635 |  | 0.0595 | 0.0625 | 0.0641 | 0.0696 | 0.0602 | 0.0674 | 0.0579 |  | 0.0527 | 0.0333 | 0.0839 |  | 0.0569 | 0.0641 | 0.0577
15 | L77W | 0.0563 | 0.062 | 0.057 | 0.0722 | 0.0776 |  |  | 0.0602 | 0.0551 | 0.0597 | 0.0491 | 0.0606 |  |  |  | 0.0321 |  |  | 0.0552
16 | E108D | 0.0728 |  | 0.066 | 0.0575 | 0.0863 | 0.0647 | 0.0935 | 0.0776 | 0.0593 | 0.0676 | 0.0682 | 0.0795 | 0.0969 |  | 0.0665 | 0.0554 | 0.0664 |  | 0.0784
17 | S123E | 0.0589 |  | 0.0773 | 0.0475 | 0.0813 | 0.0679 | 0.0871 | 0.0796 | 0.0619 |  | 0.0599 | 0.0839 | 0.0737 | 0.0793 | 0.0715 | 0.0692 | 0.0601 |  | 0.0545
18 | I86W | 0.063 | 0.0612 | 0.0524 |  | 0.0719 | 0.049 | 0.0686 | 0.0687 | 0.099 | 0.0494 | 0.0634 |  | 0.0656 | 0.0651 |  |  | 0.0423 | 0.0614 | 0.0596
19 | I86D | 0.0417 |  | 0.0362 | 0.0517 | 0.045 | 0.0345 |  | 0.0288 |  | 0.0333 | 0.0347 | 0.0364 | 0.0521 | 0.0315 |  | 0.0326 |  |  | 
20 | C131D | 0.0651 |  | 0.0588 | 0.0597 | 0.0807 |  |  |  |  |  |  |  |  |  |  | 0.0666 | 0.0682 | 0.0611 | 
21 | K100H | 0.0634 |  | 0.0563 | 0.0697 | 0.1 | 0.0778 |  | 0.0705 | 0.0701 | 0.0606 |  | 0.0667 | 0.0815 | 0.0919 |  | 0.0616 | 0.0507 | 0.0589 | 0.0674
22 | S135V | 0.0601 | 0.0667 | 0.0649 | 0.0602 | 0.0692 | 0.0363 | 0.071 | 0.0649 | 0.0579 | 0.0485 | 0.0656 | 0.0762 |  | 0.0577 | 0.059 |  | 0.0839 | 0.0661 | 0.0492
23 | S135G | 0.0633 | 0.0621 | 0.062 | 0.0687 | 0.0804 | 0.0619 | 0.066 |  | 0.0722 | 0.0693 |  | 0.0658 |  | 0.0732 |  |  | 0.041 |  | 
24 | T129V | 0.0694 | 0.0724 |  | 0.0715 | 0.0758 | 0.0749 | 0.07 | 0.0739 | 0.0668 | 0.0697 |  | 0.0723 |  |  |  |  | 0.0634 |  | 
25 | M83C | 0.0674 |  | 0.0635 |  |  | 0.0672 |  | 0.0402 | 0.0658 | 0.0794 |  | 0.0613 |  |  | 0.0764 | 0.0714 | 0.0701 | 0.074 | 
26 | M83G | 0.0512 | 0.0618 | 0.0526 | 0.0274 | 0.0543 | 0.0523 | 0.053 | 0.0665 | 0.0623 | 0.0513 |  | 0.0464 |  | 0.0589 | 0.076 |  | 0.0619 | 0.0445 | 
27 | M83K | 0.0586 | 0.0513 | 0.0397 |  | 0.0519 | 0.0732 |  |  | 0.0493 | 0.0448 | 0.0289 | 0.0666 |  |  |  |  |  | 0.07 | 
